# Measured values published in article PMC12040169 (PLOS Biology, 2025).
# The other results are listed elsewhere or left out.
# Tested on: T1, C. trachomatis L2/434/Bu expressing GFP (CTL2-GFP)
# T1 construct: L2/434/Bu GFP intracellular growth in HeLa cells
# Parameters: species or system HeLa; C. trachomatis total inclusion area by high-content imaging, normalised to DMSO
# Details: total inclusion area; 28.5 h, 10 µM; inhibitor
# In short: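 After bulk GFP and resorufin fluorescence reads, cells were fixed, stained with Hoechst and imaged by high-content microscopy. Inclusion area and number (GFP) stood in for chlamydial growth, nuclei count (Hoechst) for host cell viability. MICs were derived as for the bulk readout.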
row,SMILES,% of control remaining
1,O=c1[nH]c2ncc(-c3ccsc3)nc2n1-c1ccc2[nH]ccc2c1 [CBK064650],94.0131
2,Clc1ccc2c(c1)CCC(NCC1COc3ccccc3O1)C2 (stereo not drawn) [CBK013077C],70.0616
3,Cc1ccc(-c2nnc3c4ccccc4c(C)nn23)cc1S(=O)(=O)NC(C)c1ccccc1 (stereo not drawn) [CBK266715],116.469
4,O=C1NCCCC12CCN(Cc1ccccc1N1CCCCC1)CC2 [CBK284878],99.6943
5,CC(NC(=O)c1cc(C(F)(F)F)n(C)n1)c1cccnc1 (stereo not drawn) [CBK282203],96.9507
6,CC(C)n1c(=O)n(C(=O)c2ccco2)c2cccnc21 [CBK283856],95.5591
7,O=C(NCCc1cccs1)Nc1ccccc1 [CBK269917],92.4906
8,Cc1cc(C(=O)NC(C)c2ccccn2)c2ccccc2n1 (stereo not drawn) [CBK281826],69.9229
9,O=C(N1CCC(Oc2nccnc2OCc2ccc(Cl)cc2F)CC1)C(F)(F)F [CBK164142],68.2849
10,COc1cccc(COc2nccnc2-c2ccc(C)cc2C)c1OC [CBK106995],78.8784
11,CC(=O)N1CCN(C(=O)Cn2ccc3ccccc32)CC(O)C1 (stereo not drawn) [CBK307552],134.248
12,COc1ccc(CN2CCc3cc(OC)c(OC)cc3C2c2ccccc2)cc1CO (stereo not drawn) [CBK286358],95.1937
13,COc1ccc(CN2Cc3nc[nH]c3C[C@H]2C(=O)NCc2ccccc2)c2ccccc12 [CBK288976],88.0283
14,O=[N+]([O-])c1cccc(CN2CCC(N3CCN(Cc4ccccc4)CC3)CC2)c1 [CBK264609G],94.7249
15,Cc1cc2nc(-c3cc(NC(=O)/C=C/c4cccc([N+](=O)[O-])c4)ccc3O)oc2cc1C [CBK263438],91.3325
16,Cc1nn(CC(C)C(=O)N2CCCC(CN(C)C)C2)c(C)c1Cl (stereo not drawn) [CBK282186],101.773
17,CCc1cccc2c(/C=C3/SC(=S)N(CC(=O)O)C3=O)c[nH]c12 [CBK264937],101.088
18,N#Cc1cnn2c(O)cc(Cc3ccccc3)nc12 [CBK287942],79.4164
19,Nc1nc2c(nc(OCc3ccccc3)n2C2OC(CO)C(O)C2O)c(=O)[nH]1 (stereo not drawn) [CBK201247],117.983
20,CC(Oc1ccc(/C=N/n2cnnc2)cc1)C(=O)O (stereo not drawn) [CBK263927],98.5163
21,O=C(CCN1CCCCC1)NCC1OCCc2ccccc21 (stereo not drawn) [CBK013619],96.4302
22,O=[N+]([O-])c1ccc(CN2CCC(Oc3nccnc3OCCN3CCOCC3)CC2)cc1 [CBK082923T],112.073
23,CCCCCOc1ccc(Nc2ccc(-c3cccc(Cl)c3Cl)cn2)cc1 [CBK036856],80.7747
24,CCCNC(=O)c1ccc(NC(=O)NC(CC)c2ccnn2C)c(C)c1 (stereo not drawn) [CBK307608],72.2542
25,COc1ccc(C)cc1NC(=O)NC1CCN(Cc2ccccc2)CC1 [CBK267095],98.6047
26,Cc1ccc(-n2ncc3c(=O)n(CC(=O)NC4CCCCC4)cnc32)cc1 [CBK287536],106.434

row,SMILES,% of control remaining
1,O=C(O)C1CCN(C(=O)CCC(=O)N2CCN(c3ccccc3)CC2)CC1 [CBK286896],93.4664
2,Cc1c(CN(Cc2cccc(F)c2)CC2CCCO2)cnn1C (stereo not drawn) [CBK282953],95.2805
3,CCC(=O)N(Cc1cc2cc(C)ccc2nc1O)c1ccc(C)c(C)c1 [CBK265381],122.382
4,Cc1noc(C(C)C)c1C(=O)NC(C)c1cccc(Br)c1 (stereo not drawn) [CBK296618],51.2293
5,COc1ccc2cc(CN(CCNC(=O)OC(C)(C)C)C(=O)NC3CCCCC3)c(=O)[nH]c2c1 [CBK132074],58.8145
6,CCCN1CCC(NC(C)CCCC(C)(C)O)CC1 (stereo not drawn) [CBK261932],99.3101
7,Nc1ccc(OCc2nc3ccccc3n2CC(=O)O)cc1 [CBK270099],122.138
8,COc1ccc(S(=O)(=O)N(C)CC(=O)N2CCN(C)CC2)cc1C [CBK268105],69.6319
9,Cc1ccc(S(=O)(=O)NC[C@H]2O[C@@H](CC(=O)N3CCCC3)[C@H](O)[C@@H]2O)cc1 [CBK288910],93.457
10,Cn1nc(C2CC2)cc1NC(=O)NCC1CCN(c2ccccc2F)C1 (stereo not drawn) [CBK304380],85.0925
11,Cc1ccc(CC(=O)N2CCCCC2c2ncc(-c3cccc(F)c3)[nH]2)cn1 (stereo not drawn) [CBK291152],99.2646
12,CN1CCN(CCOC(=O)N2CCCC(F)(F)C2)CC1 [CBK200208],93.2377
13,CCN1CCN(C(=O)CN(CC)S(=O)(=O)c2ccc(Cl)cc2)CC1 [CBK268461],59.5622
14,O=C(OCc1cccc(C(=O)c2ccccc2)c1)c1ccc(-c2nnc(-c3ccccc3)o2)cc1 [CBK267852],94.4351
15,COc1ccc(S(=O)(=O)N2CCC(C(=O)Nc3cccc(F)c3)CC2)cc1C [CBK267987],105.321
16,c1ccc2c(c1)CCN(c1nc3cc4c(cc3s1)OCCO4)C2 [CBK287498],88.7778
17,O=C(c1ccco1)N1CCC(c2ccnc3nc4ccccc4n23)CC1 [CBK284490],102.333
18,CC(C)CC(=O)N1CCN(C(=O)c2ccc(F)cc2)CC1 [CBK003603],61.7786
19,CC(C)(C)n1cc(NC2CCN(c3ccc(C#N)cc3)C2=O)cn1 (stereo not drawn) [CBK306445],81.4207
20,Cc1cc(OC(=O)C2CCC(CNC(=O)OC(C)(C)C)CC2)c2c3c(c(=O)oc2c1)CCCC3 (stereo not drawn) [CBK083590],85.0081
21,Cc1cc(=O)c2ccccc2n1CC(=O)N1CCC2(CCO2)CC1 [CBK306809],87.9214
22,O=C(O)/C(=C\c1ccccc1)NC(=O)c1cccc([N+](=O)[O-])c1 [CBK263348],88.3829
23,Oc1cccc(OCCOc2cccc(C(F)(F)F)n2)c1 [CBK115797],67.0503
24,N#Cc1ccc(OCCO)cc1 [CBK000723],90.4778
25,COc1ccc(C(C)C)cc1-c1cnc2nc(N)ccc2c1 [CBK081216],78.4697
